# Measurements as given in the supplement of paper PMC8728848.
# The list shows a part of the results.
# B1: a L Fucosidase (Streptosporangium roseum), D2B1P1_STRRD (protein)
# chain: MRRKLLLVPAVGLLVIGSIFATQPVASADTPPVYEPTVESLNSHPVPQWFNDDKFGIFIHWGAYSVPAWGPRGSYAEWYGNYMNAGGSATNAHHKATYGQDFNYDAFLQQWKAEKFDPADWVKLFKDAGAKYFVLTSKHHEGMALWDSKSSGRDSVDLGPGRDLAKELFDAARKDEAKLKAGFYYSLYEWYNPAYTGRPATNPYTGAEIPYTGAPGGGDYVKDYMLPQMRELIDGYDPDIIWCDGQWEKPASYWNTAGVIADYYNKALNSGKEVAVANRCKIQSGNLDSPELDFQTPEYTVKPDIDPVKWESSRGIAHSYGYNQNEPEEDHLTSDQLVDSLVDIVSKNGNLLLDIGPKADGTIPEIQRQRLLDIGAWLKANGEAIYGTTYWNRAEEKGGPDDVRYTAKDATLYATALKWPGEQLTLGADLPVDHSTRITMLGSGARLSWSRDEQGRVVVNTPQEAGKHAYVFKIETPGVRSLLRTSSSLAKEIAPGRTISGELTVTNPGKRHTPATKLSLTVPQGWTATLGAPRVRPLGPGESVKVPISVSAPEGVAPAPYTLGLYQRTGRMGTTTALPLTVNRPNLSLGKPATQKSTGYDAPASRAVDGNTGGDWSAGSTTHTAEPEKQAWWQVDLGASARLDSVDVWNRLDCCADRLKDFWVMASDQPFTTDDLDQARTAPGVTAVHVGEQAGSPSKVKLPEGTRGRYVRIQLASPSNPLSLAEVQVRGSMARPNLSLGKPATQKSTGYDAPASRAVDGNTGGDWSAGSTTHTAEPEKQAWWQVDLGASARLDSVDVWNRLDCCADRLKDFWVMASDQPFTTDDLDQARTAPGVTAVHVGEQAGSPSKVKLPEGTRGRYVRIQLASPSNPLSLAEVQVRLEHHHHHHS
# Legend:
# Experiment in all cases: glycan array binding signal (z-score within array); higher = stronger binding
# Details in all cases: glycan notation: IUPAC condensed, linker removed
# [1] = biological target: GlcNAc(a1-6)Gal(b1-4)GlcNAc
# Outline: (§1)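 The binding signal is a Z-score computed within each array. Data were drawn from 3228 arrays in the Consortium for Functional Glycomics database, restricted to those with a known protein sequence. Scores were averaged over arrays of the same protein sequence at different concentrations or buffers, and over linkers, and negative values can be taken as non-binding.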
# [2] = biological target: GlcNAc(b1-2)Gal(b1-3)GalNAc
# Outline: as §1
# [3] = biological target: GlcNAc(b1-2)Man(a1-3)[GlcNAc(b1-2)Man(a1-6)]Man(b1-4)GlcNAc(b1-4)GlcNAc
# Outline: as §1
# [4] = biological target: GlcNAc(b1-2)Man(a1-3)[GlcNAc(b1-2)Man(a1-6)]Man(b1-4)GlcNAc(b1-4)[Fuc(a1-6)]GlcNAc
# Outline: as §1
# [5] = biological target: GlcNAc(b1-2)Man(a1-3)[GlcNAc(b1-4)][GlcNAc(b1-2)Man(a1-6)]Man(b1-4)GlcNAc(b1-4)GlcNAc
# Outline: as §1
# [6] = biological target: GlcNAc(b1-2)Man(a1-3)[GlcNAc(b1-4)][GlcNAc(b1-2)Man(a1-6)]Man(b1-4)GlcNAc(b1-4)[Fuc(a1-6)]GlcNAc
# Outline: as §1
# [7] = biological target: GlcNAc(b1-2)[GlcNAc(b1-4)]Man(a1-3)[GlcNAc(b1-2)Man(a1-6)]Man(b1-4)GlcNAc(b1-4)GlcNAc
# Outline: as §1
# [8] = biological target: GlcNAc(b1-2)[GlcNAc(b1-4)]Man(a1-3)[GlcNAc(b1-4)][GlcNAc(b1-2)Man(a1-6)]Man(b1-4)GlcNAc(b1-4)GlcNAc
# Outline: as §1
# [9] = biological target: GlcNAc(b1-2)[GlcNAc(b1-4)]Man(a1-3)[GlcNAc(b1-4)][GlcNAc(b1-2)[GlcNAc(b1-6)]Man(a1-6)]Man(b1-4)GlcNAc(b1-4)GlcNAc
# Outline: as §1
# [10] = biological target: GlcNAc(b1-2)[GlcNAc(b1-4)]Man(a1-3)[GlcNAc(b1-4)][GlcNAc(b1-2)[GlcNAc(b1-6)]Man(a1-6)]Man(b1-4)GlcNAc(b1-4)[Fuc(a1-6)]GlcNAc
# Outline: as §1
# [11] = biological target: GlcNAc(b1-2)[GlcNAc(b1-6)]Man(a1-6)[GlcNAc(b1-2)Man(a1-3)]Man(b1-4)GlcNAc(b1-4)GlcNAc
# Outline: as §1
# [12] = biological target: GlcNAc(b1-2)[GlcNAc(b1-6)]Man(a1-6)[GlcNAc(b1-2)Man(a1-3)]Man(b1-4)GlcNAc(b1-4)[Fuc(a1-6)]GlcNAc
# Outline: as §1
# [13] = biological target: GlcNAc(b1-2)[GlcNAc(b1-6)]Man(a1-6)[GlcNAc(b1-4)][GlcNAc(b1-2)Man(a1-3)]Man(b1-4)GlcNAc(b1-4)GlcNAc
# Outline: as §1
# [14] = biological target: GlcNAc(b1-3)Fuc
# Outline: as §1
# [15] = biological target: GlcNAc(b1-3)Gal
# Outline: as §1
# [16] = biological target: GlcNAc(b1-3)Gal(b1-3)GalNAc
# Outline: as §1
# [17] = biological target: GlcNAc(b1-3)Gal(b1-4)Glc
# Outline: as §1
# [18] = biological target: GlcNAc(b1-3)Gal(b1-4)GlcNAc
# Outline: as §1
# [19] = biological target: GlcNAc(b1-3)Gal(b1-4)GlcNAc(b1-2)Man(a1-3)[GlcNAc(b1-3)Gal(b1-4)GlcNAc(b1-2)Man(a1-6)]Man(b1-4)GlcNAc(b1-4)GlcNAc
# Outline: as §1
# [20] = biological target: GlcNAc(b1-3)Gal(b1-4)GlcNAc(b1-2)Man(a1-3)[GlcNAc(b1-3)Gal(b1-4)GlcNAc(b1-2)Man(a1-6)]Man(b1-4)GlcNAc(b1-4)[Fuc(a1-6)]GlcNAc
# Outline: as §1
# [21] = biological target: GlcNAc(b1-3)Gal(b1-4)GlcNAc(b1-2)[GlcNAc(b1-3)Gal(b1-4)GlcNAc(b1-6)]Man(a1-6)[GlcNAc(b1-3)Gal(b1-4)GlcNAc(b1-2)Man(a1-3)]Man(b1-4)GlcNAc(b1-4)GlcNAc
# Outline: as §1
# [22] = biological target: GlcNAc(b1-3)Gal(b1-4)GlcNAc(b1-3)Gal(b1-4)GlcNAc
# Outline: as §1
# [23] = biological target: GlcNAc(b1-3)Gal(b1-4)GlcNAc(b1-3)Gal(b1-4)GlcNAc(b1-2)Man(a1-3)[GlcNAc(b1-3)Gal(b1-4)GlcNAc(b1-3)Gal(b1-4)GlcNAc(b1-2)Man(a1-6)]Man(b1-4)GlcNAc(b1-4)GlcNAc
# Outline: as §1
# [24] = biological target: GlcNAc(b1-3)Gal(b1-4)GlcNAc(b1-3)Gal(b1-4)GlcNAc(b1-2)Man(a1-3)[GlcNAc(b1-3)Gal(b1-4)GlcNAc(b1-3)Gal(b1-4)GlcNAc(b1-2)Man(a1-6)]Man(b1-4)GlcNAc(b1-4)[Fuc(a1-6)]GlcNAc
# Outline: as §1
# [25] = biological target: GlcNAc(b1-3)Gal(b1-4)GlcNAc(b1-3)Gal(b1-4)GlcNAc(b1-2)[GlcNAc(b1-3)Gal(b1-4)GlcNAc(b1-3)Gal(b1-4)GlcNAc(b1-6)]Man(a1-6)[GlcNAc(b1-3)Gal(b1-4)GlcNAc(b1-3)Gal(b1-4)GlcNAc(b1-2)Man(a1-3)]Man(b1-4)GlcNAc(b1-4)[Fuc(a1-6)]GlcNAc
# Outline: as §1
# [26] = biological target: GlcNAc(b1-3)Gal(b1-4)GlcNAc(b1-3)Gal(b1-4)GlcNAc(b1-3)Gal(b1-4)GlcNAc(b1-2)Man(a1-3)[GlcNAc(b1-3)Gal(b1-4)GlcNAc(b1-3)Gal(b1-4)GlcNAc(b1-3)Gal(b1-4)GlcNAc(b1-2)Man(a1-6)]Man(b1-4)GlcNAc(b1-4)GlcNAc
# Outline: as §1
# [27] = biological target: GlcNAc(b1-3)Gal(b1-4)GlcNAc(b1-3)Gal(b1-4)GlcNAc(b1-3)Gal(b1-4)GlcNAc(b1-2)Man(a1-3)[GlcNAc(b1-3)Gal(b1-4)GlcNAc(b1-3)Gal(b1-4)GlcNAc(b1-3)Gal(b1-4)GlcNAc(b1-2)Man(a1-6)]Man(b1-4)GlcNAc(b1-4)[Fuc(a1-6)]GlcNAc
# Outline: as §1
# [28] = biological target: GlcNAc(b1-3)Gal(b1-4)GlcNAc(b1-3)Gal(b1-4)GlcNAc(b1-3)Gal(b1-4)GlcNAc(b1-2)[GlcNAc(b1-3)Gal(b1-4)GlcNAc(b1-3)Gal(b1-4)GlcNAc(b1-3)Gal(b1-4)GlcNAc(b1-6)]Man(a1-6)[GlcNAc(b1-3)Gal(b1-4)GlcNAc(b1-3)Gal(b1-4)GlcNAc(b1-3)Gal(b1-4)GlcNAc(b1-2)Man(a1-3)]Man(b1-4)GlcNAc(b1-4)[Fuc(a1-6)]GlcNAc
# Outline: as §1
# [29] = biological target: GlcNAc(b1-3)Gal(b1-4)GlcNAc(b1-3)Gal(b1-4)GlcNAc(b1-3)Gal(b1-4)GlcNAc(b1-3)Gal(b1-4)GlcNAc(b1-2)Man(a1-3)[GlcNAc(b1-3)Gal(b1-4)GlcNAc(b1-3)Gal(b1-4)GlcNAc(b1-3)Gal(b1-4)GlcNAc(b1-3)Gal(b1-4)GlcNAc(b1-2)Man(a1-6)]Man(b1-4)GlcNAc(b1-4)GlcNAc
# Outline: as §1
# [30] = biological target: GlcNAc(b1-3)Gal(b1-4)GlcNAc(b1-3)Gal(b1-4)GlcNAc(b1-3)Gal(b1-4)GlcNAc(b1-3)Gal(b1-4)GlcNAc(b1-2)Man(a1-3)[GlcNAc(b1-3)Gal(b1-4)GlcNAc(b1-3)Gal(b1-4)GlcNAc(b1-3)Gal(b1-4)GlcNAc(b1-3)Gal(b1-4)GlcNAc(b1-2)Man(a1-6)]Man(b1-4)GlcNAc(b1-4)[Fuc(a1-6)]GlcNAc
# Outline: as §1
binder,measurement,setting,value
B1,glycan array binding signal (z-score),[1],-0.568
same,glycan array binding signal (z-score),[2],-0.268
same,glycan array binding signal (z-score),[3],-0.028
same,glycan array binding signal (z-score),[4],-0.293
same,glycan array binding signal (z-score),[5],0.037
same,glycan array binding signal (z-score),[6],1.22
same,glycan array binding signal (z-score),[7],-0.412
same,glycan array binding signal (z-score),[8],-0.459
same,glycan array binding signal (z-score),[9],-0.285
same,glycan array binding signal (z-score),[10],2.27
same,glycan array binding signal (z-score),[11],-0.092
same,glycan array binding signal (z-score),[12],-0.341
same,glycan array binding signal (z-score),[13],-0.458
same,glycan array binding signal (z-score),[14],2.71
same,glycan array binding signal (z-score),[15],-0.578
same,glycan array binding signal (z-score),[16],-0.451
same,glycan array binding signal (z-score),[17],-0.391
same,glycan array binding signal (z-score),[18],-0.466
same,glycan array binding signal (z-score),[19],-0.456
same,glycan array binding signal (z-score),[20],0.263
same,glycan array binding signal (z-score),[21],-0.438
same,glycan array binding signal (z-score),[22],-0.352
same,glycan array binding signal (z-score),[23],0.743
same,glycan array binding signal (z-score),[24],-0.076
same,glycan array binding signal (z-score),[25],-0.496
same,glycan array binding signal (z-score),[26],-0.507
same,glycan array binding signal (z-score),[27],-0.03
same,glycan array binding signal (z-score),[28],-0.512
same,glycan array binding signal (z-score),[29],-0.413
same,glycan array binding signal (z-score),[30],1.09
